From paper PMC12820563
The list shows a part of the results. The list includes weakly bound sequences.

Target: T1, MBP-FoxP3dN (UniProt Q99JB6)
T1 sequence: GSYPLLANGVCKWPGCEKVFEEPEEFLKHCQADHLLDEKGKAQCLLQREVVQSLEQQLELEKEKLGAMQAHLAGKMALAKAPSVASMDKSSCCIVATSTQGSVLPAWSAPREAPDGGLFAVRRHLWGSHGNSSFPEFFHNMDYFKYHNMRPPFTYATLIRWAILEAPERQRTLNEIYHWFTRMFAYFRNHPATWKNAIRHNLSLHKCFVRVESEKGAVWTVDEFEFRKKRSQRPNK
Assay: PD-seq (MBP pull-down with sequencing)
Conditions: 20 mM Tris-HCl pH 7.5, 100 mM NaCl, 1.5 mM MgCl2, 0.4 uM protein, 0.1 uM dsDNA library, 30 min, room temperature, amylose pull-down; high values mean tight binding; double strand, one strand shown

| Sequence | binding signal (RPM ratio (pull-down/input)) |
| --- | --- |
| GATGATTGTTCTCCCAGCTGATGAATTGTGTCATTCGAGTAAACAAATTTTCCTAATCTTTCTGTTCAAGCGCCATCTAC | 4.91 |
| GATGATTGTTCTCCCAGCTGATGAATTTAATACGTCGAGTAAACAAATTTTCCTAATCTTTCTGTTCAAGCGCCATCTAC | 0.538 |
| GATGATTGTTCTCCCAGCTGATGAATTCCGCATCTCGAGTAAACAAATTTTCCTAATCTTTCTGTTCAAGCGCCATCTAC | 6.95 |
| GATGATTGTTCTCCCAGCTGATGAATTTAACGAGTCGAGTAAACAAATTTTCCTAATCTTTCTGTTCAAGCGCCATCTAC | 0.208 |
| GATGATTGTTCTCCCAGCTGATGAATTAGGCCTTTCGAGTAAACAAATTTTCCTAATCTTTCTGTTCAAGCGCCATCTAC | 4.1 |
| GATGATTGTTCTCCCAGCTGATGAATTTCTGCCCTCGAGTAAACAAATTTTCCTAATCTTTCTGTTCAAGCGCCATCTAC | 0.382 |
| GATGATTGTTCTCCCAGCTGATGAATTTATTGCTTCGAGTAAACAAATTTTCCTAATCTTTCTGTTCAAGCGCCATCTAC | 3.88 |
| GATGATTGTTCTCCCAGCTGATGAATTAAAGCGCTCGAGTAAACAAATTTTCCTAATCTTTCTGTTCAAGCGCCATCTAC | 0.568 |
| GATGATTGTTCTCCCAGCTGATGAATTATTCCATTCGAGTAAACAAATTTTCCTAATCTTTCTGTTCAAGCGCCATCTAC | 0.434 |
| GATGATTGTTCTCCCAGCTGATGAATTGGGACTATCGAGTAAACAAATTTTCCTAATCTTTCTGTTCAAGCGCCATCTAC | 0.579 |
| GATGATTGTTCTCCCAGCTGATGAATTGAGTTACTCGAGTAAACAAATTTTCCTAATCTTTCTGTTCAAGCGCCATCTAC | 1.19 |
| GATGATTGTTCTCCCAGCTGATGAATTCCCGTACTCGAGTAAACAAATTTTCCTAATCTTTCTGTTCAAGCGCCATCTAC | 0.344 |
| GATGATTGTTCTCCCAGCTGATGAATTTCCCCAGTCGAGTAAACAAATTTTCCTAATCTTTCTGTTCAAGCGCCATCTAC | 0.146 |
| GATGATTGTTCTCCCAGCTGATGAATTCGATAACTCGAGTAAACAAATTTTCCTAATCTTTCTGTTCAAGCGCCATCTAC | 0.403 |
| GATGATTGTTCTCCCAGCTGATGAATTAACAACATCGAGTAAACAAATTTTCCTAATCTTTCTGTTCAAGCGCCATCTAC | 2.67 |
| GATGATTGTTCTCCCAGCTGATGAATTGGCAAGTTCGAGTAAACAAATTTTCCTAATCTTTCTGTTCAAGCGCCATCTAC | 0.405 |
| GATGATTGTTCTCCCAGCTGATGAATTTAAATTGTCGAGTAAACAAATTTTCCTAATCTTTCTGTTCAAGCGCCATCTAC | 0.654 |
| GATGATTGTTCTCCCAGCTGATGAATTATAGGGCTCGAGTAAACAAATTTTCCTAATCTTTCTGTTCAAGCGCCATCTAC | 0.325 |
| GATGATTGTTCTCCCAGCTGATGAATTACGGGTGTCGAGTAAACAAATTTTCCTAATCTTTCTGTTCAAGCGCCATCTAC | 0.873 |
| GATGATTGTTCTCCCAGCTGATGAATTTCTCAAGTCGAGTAAACAAATTTTCCTAATCTTTCTGTTCAAGCGCCATCTAC | 0.167 |

| Sequence | binding signal (RPM ratio (pull-down/input)) |
| --- | --- |
| GATGATTGTTCTCCCAGCTGATGAATTTGGTAAGTCGAGTAAACAAATTTTCCTAATCTTTCTGTTCAAGCGCCATCTAC | 0.454 |
| GATGATTGTTCTCCCAGCTGATGAATTGTCCAGCTCGAGTAAACAAATTTTCCTAATCTTTCTGTTCAAGCGCCATCTAC | 0.249 |
| GATGATTGTTCTCCCAGCTGATGAATTCTGTTAATCGAGTAAACAAATTTTCCTAATCTTTCTGTTCAAGCGCCATCTAC | 1.25 |
| GATGATTGTTCTCCCAGCTGATGAATTTGTCGGCTCGAGTAAACAAATTTTCCTAATCTTTCTGTTCAAGCGCCATCTAC | 2.24 |
| GATGATTGTTCTCCCAGCTGATGAATTTTCCCCTTCGAGTAAACAAATTTTCCTAATCTTTCTGTTCAAGCGCCATCTAC | 0.214 |
| GATGATTGTTCTCCCAGCTGATGAATTCAGGTTTTCGAGTAAACAAATTTTCCTAATCTTTCTGTTCAAGCGCCATCTAC | 0.569 |
| GATGATTGTTCTCCCAGCTGATGAATTAGACGTGTCGAGTAAACAAATTTTCCTAATCTTTCTGTTCAAGCGCCATCTAC | 0.628 |
| GATGATTGTTCTCCCAGCTGATGAATTTGGTGCATCGAGTAAACAAATTTTCCTAATCTTTCTGTTCAAGCGCCATCTAC | 1.86 |
| GATGATTGTTCTCCCAGCTGATGAATTTAGATTATCGAGTAAACAAATTTTCCTAATCTTTCTGTTCAAGCGCCATCTAC | 1.31 |
| GATGATTGTTCTCCCAGCTGATGAATTCGCATCGTCGAGTAAACAAATTTTCCTAATCTTTCTGTTCAAGCGCCATCTAC | 2.77 |
| GATGATTGTTCTCCCAGCTGATGAATTCGTGGTTTCGAGTAAACAAATTTTCCTAATCTTTCTGTTCAAGCGCCATCTAC | 1.35 |
| GATGATTGTTCTCCCAGCTGATGAATTCGGAATCTCGAGTAAACAAATTTTCCTAATCTTTCTGTTCAAGCGCCATCTAC | 1.48 |
| GATGATTGTTCTCCCAGCTGATGAATTTAGCCCTTCGAGTAAACAAATTTTCCTAATCTTTCTGTTCAAGCGCCATCTAC | 1.19 |
| GATGATTGTTCTCCCAGCTGATGAATTTCCTGATTCGAGTAAACAAATTTTCCTAATCTTTCTGTTCAAGCGCCATCTAC | 0.219 |
| GATGATTGTTCTCCCAGCTGATGAATTTAGCCCATCGAGTAAACAAATTTTCCTAATCTTTCTGTTCAAGCGCCATCTAC | 1.28 |
| GATGATTGTTCTCCCAGCTGATGAATTCTGTTCCTCGAGTAAACAAATTTTCCTAATCTTTCTGTTCAAGCGCCATCTAC | 0.939 |
| GATGATTGTTCTCCCAGCTGATGAATTCATTCGGTCGAGTAAACAAATTTTCCTAATCTTTCTGTTCAAGCGCCATCTAC | 0.256 |
| GATGATTGTTCTCCCAGCTGATGAATTGCCTTTTTCGAGTAAACAAATTTTCCTAATCTTTCTGTTCAAGCGCCATCTAC | 1.02 |
| GATGATTGTTCTCCCAGCTGATGAATTTTCCTCCTCGAGTAAACAAATTTTCCTAATCTTTCTGTTCAAGCGCCATCTAC | 0.252 |
| GATGATTGTTCTCCCAGCTGATGAATTTTAACCCTCGAGTAAACAAATTTTCCTAATCTTTCTGTTCAAGCGCCATCTAC | 0.268 |
